In publication PMC4813486, “Uncovering the Early Assembly Mechanism for Amyloidogenic β2-Microglobulin Using Cross-linking and Native Mass Spectrometry*” (The Journal of Biological Chemistry, 2015):
Where “and” joins values, the source holds several entries; their conditions need not be identical. Equal entries are not always repeated.

What was measured:
[1] = target: the molecule itself; test: native MS; ion mobility MS, 30 μM protein, 100 mM ammonium acetate, pH 5 (data not shown)
[2] = target: the molecule itself; test: native MS; ion mobility MS, 10 μM monomer concentration, 100 mM ammonium acetate, pH 5
[3] = target: the molecule itself; test: cross-linking; BS3-d0/d4 1:1, 25 °C, 1 h; gel electrophoresis (NuPAGE); bands digested in-gel with trypsin; LC-MS/MS

B1: ΔN6-β2m, truncated β2-microglobulin variant lacking six N-terminal residues (domain or fragment)
chain: not shown
notes: β2-microglobulin lacking the six N-terminal residues of the mature protein (11.1-kDa monomer); also called truncated β2m isoform; truncated variant; source: E. coli, purified (ion exchange chromatography, size exclusion chromatography), lyophilized
- stoichiometry N [1]: > 5
- stoichiometry N [2]: 2
- stoichiometry N [3]: 3 and 4
